Measurements: US10172829B2 (priority 2014, dated 2019)

Test system: C. difficile strain 630

O=c1c2ccccc2[se]n1-c1ccccc1 [Ebselen, 2-phenyl-1,2-benzoselenazol-3-one]
shed-toxin induced EC50 of cell-rounding (feces applied to HFF cells) (100 mg/kg daily via oral gavage, day 5 post infection, vs vehicle): significant reduction | C. difficile colony forming unit (CFU) counts from fecal samples, ebselen- vs vehicle-treated (mouse, in vivo): did not observe a significant difference
